In patent US5837686A, “Peptides and antibodies for treatment of rheumatoid arthritis” (Peptide Therapeutics Limited, priority 1991, dated 1998):
Not every detail of the peptide structures is certain; ends, links or a residue may be inferred. Some entries repeat one wording, which the source may state once for all of them. Ends that are not written are not given here. Peptide text beside a SMILES is read from it.

Legend:
[1] = system: IgA-α1 AT complex; experiment: HPLC analysis of dissociation of purified IgA-α1 AT complex in vitro; type: biochemical, human; conditions: for HPLC minimum: Table 6; for HPLC minimum / HPLC % minimum / HPLC: minimum concentration giving complex: free IgA ratio of 20%; for anti-complex activity (in words): summary statements after Tables 2-6; for HPLC %: Table 1, minimum peptide concentration giving complex: free IgA ratio of 20% (base-line 14%), 90 minutes at 37° C.
Procedure: The ability of the peptides of the invention to dissociate purified IgA-α1 AT complex in vitro was tested as described below. The anti-rheumatic drug D-penicillamine and other synthetic peptides were used as controls. […] The sample was monitored at wavelength 206 nm at a flow rate of 1 ml/minute with phosphate buffer (0.1M) pH 7.1. They represent the ability of the peptides to dissociate the IgA-α1 AT complex in vitro. In these experiments, the base-lines level comprises a complex: free IgA ratio of 14%. The minimum concentration of peptide taken to produce a positive dissociation effect is that which results in a complex: free IgA ratio at 20%. In the results tables, all the peptide values are expressed in μMoles.

[2] = system: alternative complement (C3) pathway; experiment: Inhibition of C3-activation (IgA-α1 AT complex activation of alternative complement pathway, rabbit RBC lysis); type: biochemical, human
Procedure: Various peptides were tested for their ability to prevent the IgA-α1 AT complex from activating the alternative complement (C3) pathway. […] This method was based on the method described by Riches and Stanworth, Immunology Letters, 1980, 1, 363,366, with modification to miniaturise it thus allowing the assay to be carried out on microtitre plates. The initial observation by […] and Ishizaka (J Immunol. […] The non-immune complex IgA-α1 AT had been shown in the past to be the only known soluble complex to activate the alternative pathway complement and inhibit the lysis of the rabbit erythrocytes. This inhibition required biologically active complex. […] Positive and negative controls, serum only controls and serum plus IgA-α1 AT complex controls were included in the assay. 25 μl of a suitable dilution of IgA-α1 AT complex (see (iii) above) was added to the test wells and the plates were centrifuged at 2000 rpm for 1 minute. The plates were then incubated at 37° C. for 11/2 hours. 50 μl of a suitable serum dilution (see (a) above) was added and the plates centrifuged at 2000 rpm for 10 minute, then incubated at 37° C. for 30 minutes. 50 μl of 1% rabbit RBC was added and after a further 30 minutes of 37° C. incubation, the plates were centrifuged at 2000 rpm for 10 minutes. Supernatants were taken as previously. The mean values of each of the serum(s), serum and complex (c+s) and total haemolysis wells were calculated. The % haemolysis with respect to lysis by serum wells was calculated. The peptide was considered to have titred out when % lysis value was equal to the calculated % lysis value given by the c+s mean. The titre point for the peptide was calculated as the concentration in μM of the peptide that just gave greater lysis than the c+s mean value.

[3] = >500 = no dissociation at highest concentration tested
[4] = Table 2, minimum concentration needed to prevent C3 activation
[5] = Table 2, >500 = no dissociation at highest concentration tested
[6] = Table 1, minimum concentration of peptide needed to prevent C3 activation
[7] = Table 3, minimum concentration needed to prevent C3 activation
[8] = Table 4, minimum concentration needed to prevent C3 activation

## NCCCC[C@H](NC(=O)[C@H](CCCCN)NC(=O)[C@@H](N)CS)C(=O)O [Peptide 106, CKK] (H-Cys-Lys-Lys-OH)
[1]; [3]
  HPLC minimum: 500 µM
[1]
  anti-complex activity (in words): substantially less active

## NCCCC[C@H](NC(=O)[C@H](CCCCN)NC(=O)[C@H](CS)NC(=O)[C@@H](N)Cc1c[nH]cn1)C(=O)O [Peptide 107, HCKK] (H-HCKK-OH)
[1]; [3]
  HPLC minimum: 250 µM
[1]
  anti-complex activity (in words): substantially less active

## NCCCC[C@H](NC(=O)[C@@H](N)CS)C(=O)O [Peptide 109, CK] (H-Cys-Lys-OH)
[1]; [3]
  HPLC minimum: 500 µM
[1]
  anti-complex activity (in words): substantially less active

## NCCCC[C@H](NC(=O)[C@H](CS)NC(=O)[C@@H](N)Cc1c[nH]cn1)C(=O)O [Peptide 110, HCK] (H-His-Cys-Lys-OH)
[1]; [3]
  HPLC minimum: 500 µM
[1]
  anti-complex activity (in words): substantially less active

## N[C@@H](Cc1c[nH]cn1)C(=O)N[C@@H](CS)C(=O)O [Peptide 112, HC] (H-His-Cys-OH)
[1]; [3]
  HPLC minimum: 250 µM
[1]
  anti-complex activity (in words): substantially less active

## NCCCC[C@H](NC(=O)[C@H](CCCCN)NC(=O)[C@@H](N)CS)C(N)=O [Peptide 114, CKKnh2] (H-Cys-Lys-Lys-NH2)
[2]; [4]
  C' minimum: > 1250 µM
[1]; [5]
  HPLC % minimum: 125 µM

## NCCCC[C@H](NC(=O)[C@@H](N)CS)C(N)=O [Peptide 115, CKnh2] (H-Cys-Lys-NH2)
[1]; [3]
  HPLC minimum: 500 µM
[1]
  anti-complex activity (in words): substantially less active

## NCCCC[C@H](NC(=O)[C@H](CS)NC(=O)[C@@H](N)Cc1c[nH]cn1)C(N)=O [Peptide 116, HCKnh2] (H-His-Cys-Lys-NH2)
[2]; [6]
  C': 62 µM
[1]
  HPLC %: 125 µM

## C[C@@H](O)[C@H](NC(=O)CN)C(=O)N[C@@H](CS)C(=O)N[C@@H](Cc1ccc(O)cc1)C(=O)O [Peptide 127, GTCY, reference compound] (H-GTCY-OH)
[1]; [3]
  HPLC minimum: 50 µM

## C[C@@H](O)[C@H](N)C(=O)N[C@@H](CS)C(=O)N[C@@H](Cc1ccc(O)cc1)C(=O)O [Peptide 128, TCY, reference compound] (H-Thr-Cys-Tyr-OH)
[1]; [3]
  HPLC minimum: 125 µM

## NCCCC[C@H](NC(=O)[C@H](CCCCN)NC(=O)[C@H](CS)NC(=O)[C@@H](N)Cc1c[nH]cn1)C(N)=O [Peptide 132, HCKKnh2] (H-HCKK-NH2)
[2]; [6]
  C': 16 µM
[1]
  HPLC %: 10 µM

## N=C(N)NCCC[C@H](N)C(=O)N[C@@H](CS)C(=O)NCC(=O)N[C@@H](CCCCN)C(N)=O [Peptide 139, RCGKnh2] (H-RCGK-NH2)
[2]; [6]
  C': 62 µM
[1]
  HPLC %: 10 µM

## NCCCC[C@H](NC(=O)CNC(=O)[C@H](Cc1c[nH]cn1)NC(=O)[C@@H](N)CS)C(N)=O [Peptide 176, CHGKnh2] (H-CHGK-NH2)
[2]; [4]
  C' minimum: 125 µM
[1]; [5]
  HPLC % minimum: > 500 µM

## NCCCC[C@H](NC(=O)CNC(=O)[C@@H](N)Cc1c[nH]cn1)C(=O)N[C@@H](CS)C(N)=O [Peptide 179, HGKCnh2] (H-HGKC-NH2)
[2]; [7]
  C' minimum: 8 µM
[1]; Table 3
  HPLC % minimum: 50 µM

## NCCCC[C@H](NC(=O)[C@@H](N)Cc1c[nH]cn1)C(=O)NCC(=O)N[C@@H](CS)C(N)=O [Peptide 182, HKGCnh2] (H-HKGC-NH2)
[2]; [7]
  C' minimum: 8 µM
[1]; Table 3
  HPLC % minimum: 50 µM

## NCCCC[C@H](NC(=O)[C@H](Cc1c[nH]cn1)NC(=O)CNC(=O)[C@@H](N)CS)C(N)=O [Peptide 183, CGHKnh2] (H-CGHK-NH2)
[2]; [4]
  C' minimum: > 250 µM
[1]; [5]
  HPLC % minimum: > 500 µM

## C[C@@H](N)C(=O)N[C@@H](Cc1c[nH]cn1)C(=O)N[C@@H](CS)C(=O)N[C@@H](CCCCN)C(=O)N[C@@H](CCCCN)C(N)=O [Peptide 205, dAHCKKnh2] (HELM PEPTIDE1{[dA].H.C.K.K.[am]}$$$$V2.0)
[2]; [8]
  C': 1.95 µM
[1]; Table 4
  HPLC: 10 µM

## C[C@@H](NC(=O)[C@H](CCCCN)NC(=O)[C@H](CCCCN)NC(=O)[C@H](CS)NC(=O)[C@@H](N)Cc1c[nH]cn1)C(N)=O [Peptide 206, HCKKdAnh2] (HELM PEPTIDE1{H.C.K.K.[dA].[am]}$$$$V2.0)
[2]; Table 5, minimum concentration needed to prevent C3 activation
  C': 31.3 µM
[1]; Table 5
  HPLC: 50 µM

## C[C@@H](N)C(=O)N[C@@H](Cc1c[nH]cn1)C(=O)N[C@@H](CS)C(=O)N[C@@H](CCCCN)C(=O)N[C@@H](CCCCN)C(=O)N[C@H](C)C(N)=O [Peptide 210, dAHCKKdAnh2] (HELM PEPTIDE1{[dA].H.C.K.K.[dA].[am]}$$$$V2.0)
[2]; Table 6, minimum concentration needed to prevent C3 activation
  C' minimum: 3.9 µM
[1]; [3]
  HPLC minimum: 10 µM

## CGGGHK-NH2 [Peptide 185, CGGGHKnh2]
[2]; [4]
  C' minimum: 250 µM
[1]; [5]
  HPLC % minimum: > 500 µM

## CGGHK-NH2 [Peptide 184, CGGHKnh2]
[2]; [4]
  C' minimum: > 250 µM
[1]; [5]
  HPLC % minimum: > 500 µM
[1]; Table 2, >500 = no dissociation at highest concentration tested, listed as 189
  HPLC % minimum: 50 µM

## CHGGGGK-NH2 [Peptide 187, CHGGGGKnh2]
[2]; [4]
  C' minimum: 62 µM
[1]; [5]
  HPLC % minimum: 50 µM

## CHGGK-NH2 [Peptide 148, CHGGKnh2]
[2]; [4]
  C' minimum: 32 µM
[1]; [5]
  HPLC % minimum: 125 µM

## DGGGGGHCKK-NH2 [Peptide 130, DGGGGGHCKKnh2]
[2]; [8]
  C': 16 µM
[1]; Table 4
  HPLC: 10 µM

## DGGGHCKK-NH2 [Peptide 117, DGGGHCKKnh2]
[2]; [8]
  C': 8 µM
[1]; Table 4
  HPLC: 10 µM
